Results as given in PubChem BioAssay AID1508623 (National Center for Advancing Translational Sciences (NCATS), 2021).
The whole screen tested about 48,000 compounds, of which about 450 (0.94%) were called active. Roughly 19% stayed inconclusive and do not appear here. Calls follow the shape of the dose curve; as a rule, active = well fitted inhibition curve with a large enough effect; inconclusive = small, poorly fitted or top-dose-only effect; inactive = no such curve, though single readings can be large or run the other way. This is one part of the list.

Test: Primary qHTS for Identification of Small Molecule Inhibitors of Huntingtin Promoter Activity; also: nearly all actives have a fitted effect of over 50% in size
Details: HEK293 HTT promoter firefly luciferase reporter (activity 0% = vehicle and -100% = no light), 24 h; series mostly up to 57.5 µM; activity change, negative = inhibition: at the top concentration
Procedure, shortened: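 HEK293 cells carrying firefly luciferase reporters were seeded at 2,500 per well in Opti-MEM and cultured for 24 h. They were then treated with compounds at up to 57.5 uM final for 24 h at 37 degrees C before Dual-Glo luminescence readout.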

Activity change, negative = inhibition, inactive:
CCN(C(=O)c1cnc(N2CCOCC2)c2ccccc12)c1cc(C)ccc1C -11.2%, CCOc1ccccc1NC(=O)c1ccc2c(Cl)c3c(nc2c1)CCCC3 0.767%, Nc1nc(=O)n([C@H]2CSC(CO)O2)cc1F (some centres not stated) -2.08%, CCOc1ccc(-c2nnc(SCC(=O)NCCc3ccccc3)nc2-c2ccc(OCC)cc2)cc1 4.26%, COc1cccc(CNc2nc3c(-c4cccc(C)c4)nnn3c3ccccc23)c1 1.94%, CC(=O)Nc1ccc(NC(=O)CCC(=O)c2ccc(C)cc2)cc1 -8.47%, O=C(OCc1cc(=O)n2nc(-c3cccs3)sc2n1)c1ccccc1Br -2.6%, Cc1cc(NC(=O)C(C)(C)Oc2ccc(Cl)cc2)cc(-c2nc3ncccc3o2)c1O -10.5%, Cc1cc(C)cc(C(=O)Nc2nnc3n2CCS3)c1 15.3%, COC(=O)c1cc(NC(=O)c2ccc3c(c2)N(Cc2cccc(Cl)c2)C(=O)c2ccccc2S3=O)cc(C(=O)OC)c1 (configuration not stated) -12%, O=C(CSc1ncc2c(n1)-c1cc(Cl)ccc1N(Cc1ccccc1F)S2(=O)=O)Nc1cccc(C(F)(F)F)c1 -20.4%, CCCn1c2ccccc2c2cnn(CC(=O)Nc3ccc(C)cc3Br)c(=O)c21 -8.6%, Cc1cc2ccccc2n2c(SCC(=O)Nc3cccc(C(F)(F)F)c3)nnc12 -17.7%, CNc1oc(-c2ccc(COc3ccc(C)cc3)o2)nc1C#N -22.4%, CCOc1ccccc1NC(=O)c1cnc(N2CCOCC2)c2ccccc12 -1.22%, COc1ccc(OCc2nc3c4c(-c5ccc(OC)cc5)c(-c5ccc(OC)cc5)oc4ncn3n2)cc1 -7.13%, CCc1ccc(NC(=O)c2sc3nc(C)c(Cl)c(C)c3c2NC(=O)c2ccccc2)cc1 14.5%, Cc1cccc(CNC(=O)c2sc3ncnc(N(C)C4CCCCC4)c3c2C)c1 -28.2%, O=C(C1CC1)N1CCN(c2nc3c(F)cc(F)cc3s2)CC1 37.8%, CCN(CC)c1nc(-c2ccccc2Cl)c2cc(Br)ccc2n1 -7.66%, Cc1nn(-c2ccccc2)c2nc(C3CC3)cc(C(=O)NCc3ccccc3Cl)c12 -18.2%, CC(C)Nc1ccc(-c2nc(-c3ccccn3)no2)cc1[N+](=O)[O-] 13.7%, O=S(=O)(c1ccc(-c2cnc(C3CC3)o2)cc1)N1CCN(c2cccc(Cl)c2)CC1 9.69%, CCOc1ccccc1C(=O)Nc1cc(-c2ccc(C)cc2)no1 10.7%, Cc1cccc(S(=O)Cc2ccc(C(=O)NC3CCCCCC3)o2)c1 (configuration not stated) -3.92%, Cc1ccc(C(=O)Nc2ccc(C(=O)OCc3cc(=O)n4c5c(sc4n3)CCCC5)cc2)cc1 -18.7%, Cc1ccc2c(c1)c(=O)c(S(=O)(=O)c1ccc(C)c(C)c1)cn2CC(=O)Nc1ccccc1 -22.3%, CCc1cccc(C)c1NC(=O)C1=C(C)C(=O)OC12CCC(C)CC2 (configuration not stated) -6.91%, CC[N+](CC)(CCNC(=O)C(=O)NCC[N+](CC)(CC)Cc1ccccc1Cl)Cc1ccccc1Cl 12.7%, COc1ccccc1Nc1ncc(C(=O)Nc2ccc(OC)c(OC)c2)c2ccccc12 -9.93%, Cc1ccc(Nc2ncnc3c2nc2n3CCCC2)c(Br)c1 -36.2%, COc1ccccc1CNC(=O)c1cnc2sc(N3CCOCC3)nn2c1=O 8.99%, COC(=O)c1cc(S(=O)(=O)N2CCN(c3ccc(F)cc3)CC2)cn1C -22.4%, COc1ccccc1CNC(=O)c1ccc2c(c1)CCN2S(=O)(=O)c1ccc(Cl)cc1 -30.6%, COc1ccc2nc(N(Cc3cccnc3)C(=O)COc3ccccc3)sc2c1 -3.78%, Cn1cc(C(=O)NCCc2ccc(Cl)cc2)c(=O)c2cc(S(=O)(=O)N3CCCCC3)ccc21 -17.8% [at 11.5 µM], COC(=O)c1ccc(Cn2nnc3c(=O)[nH]c(C4CCCN(S(=O)(=O)c5ccccc5)C4)nc32)cc1 (configuration not stated) -1.19%, CCCC(CCC)C(=O)Nc1cccc(-c2nc3cccnc3s2)c1 -2.55%, CCc1ccccc1NC(=O)N1CCC2(CC1)Oc1ccccc1C(=O)N2Cc1ccccc1F -13.2%, CC(=O)Nc1ccc(NS(=O)(=O)c2ccc3[nH]c4c(c3c2)CCCCC4)cc1 -35.6%, CCCCC1C(=O)N(c2ccccc2)N(c2ccccc2)C1=O -2.07%, COc1cc(OC)c(NC(=O)N2CCN3CCCCC3C2)cc1Cl (configuration not stated) -4.39%, CCOC(=O)c1ccccc1NC(=O)CSc1cc(C)[nH]c(=O)n1 -3.65%, COc1ccc(Cl)cc1NC(=O)CCN1C(=O)c2ccccc2Sc2ncccc21 -14.7%, CC(=O)N1CCc2cc(S(=O)(=O)NC(CC(C)C)C(=O)NCCc3ccccc3)ccc21 (configuration not stated) -9.02%, CC(C)C(=O)N1c2nc(C(C)C)nn2C2(CCCCC2)[C@@H]2CCCC[C@@H]21 -0.391%, Cc1cc(C)c2c(=O)cc(CSc3nnc(-c4ccccc4)n3C)[nH]c2c1 -20.1%, Cc1ccc(Nc2nc3ccccc3c3nnc(C)n23)cc1Cl -3.06%, COc1ccc(OC)c(Nc2ncc3c(n2)CCN(Cc2cc(OC)c(OC)c(OC)c2)C3)c1 -24.4%, COc1cc(-c2nnc(SCC(=O)Oc3ccccc3)o2)cc(OC)c1OC 4.31%, CSCCC(NS(=O)(=O)c1cccs1)C(=O)Nc1ccc(C)c(Cl)c1 (configuration not stated) 4.12%, COC(=O)c1ccc(Cn2c(SCC(=O)NCc3ccccc3)nc3ccccc32)cc1 -7%, O=C(CO)[C@@H](O)[C@H](O)[C@@H](O)CO 7.65%, CC(=O)c1ccc(NC(=O)CSc2nnc(NC(=O)Nc3ccccc3)s2)cc1 13.3%, COc1ccc(Cl)cc1NC(=O)c1ncn(-c2ccccc2)n1 -7.61%, COc1ccc(OC)c(NC(=O)Cc2c(C)n(C(=O)c3ccc(Cl)cc3)c3ccc(OC)cc23)c1 -10.4%, CC(=O)c1cccc(NC(=O)CN2C(=O)c3cccnc3Sc3ccccc32)c1 4.36%, CCc1ccc(NC(=O)Cn2c(=O)n(-c3ccccc3)c(=O)c3ccc(C(=O)NCc4ccc5c(c4)OCO5)cc32)cc1 -28.4%, Cc1ccc(C)c(Cn2c(=O)n(Cc3ccco3)c(=O)c3oc4ccccc4c32)c1 -15.8%, CCc1ccccc1NC(=O)c1sc2nc3n(c(=O)c2c1C)CCC3 44%, CCN1CCOC(=O)C1CC(=O)Nc1ccc(C(C)=O)cc1 (configuration not stated) -5.86%, COc1cc(CN(C(=O)c2ccc(OC(C)C)cc2)C2CCS(=O)(=O)C2)cc(OC)c1OC (configuration not stated) -14.5%
